# Data published in the supplement of paper PMC10037445.
# “And” between values parts separate entries of the source, which are not always exact repeats. Equal values may be shown once. Over roughly 2,900 compounds, “NF-kB SEAP reporter activity, fold change vs agonist alone” has its median near 0.99; the highest 2% begin near 2.6. The list shows a part of the results.
# Tests used:
# RAW-Dual [1] = assay: NF-kB SEAP reporter activity, fold change vs agonist alone; higher = enhanced NF-kB activity; details: library stock concentration (final ~1000-fold dilution): 10 mM
# In short: (§1)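 Cytotoxic wells were those whose IncuCyte confluency was below 70% of agonist controls in both mask sets. The cells were RAW-Dual macrophages at 50,000 cells/well in DMEM on 384-well plates, dosed with 50 nL of library stock by pin tool, stimulated with a PRR agonist 1 h later, and kept at 37 °C, 5% CO2 for 20 hours. IRF and NF-κB reporter activity, as fold change over agonist-alone wells, came from supernatant read by QuantiLuc luminescence and QuantiBlue absorbance, respectively.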
# RAW-Dual [2] = assay: NF-kB SEAP reporter activity, fold change vs agonist alone; cytotoxicity flag (confluency mask): cytotoxic (confluency <70% of control); higher = enhanced NF-kB activity
# In short: as §1
# RAW-Dual [3] = assay: NF-kB SEAP reporter activity, fold change vs agonist alone; cytotoxicity flag (confluency mask): not cytotoxic; higher = enhanced NF-kB activity
# In short: as §1
# [4] = agonist: ODN 1826 (TLR9) 0.5 ug/mL
# [5] = agonist: Pam2CSK4 (TLR2/6) 0.1 ug/mL
# [6] = agonist: Pam3CSK4 (TLR2/1) 0.1 ug/mL
# [7] = cytotoxicity flag (confluency mask): not cytotoxic, agonist: Imiquimod (TLR7) […]
# [8] = cytotoxicity flag (confluency mask): not cytotoxic, agonist: MPLA (TLR4) […]
smiles,measurement,setting,value
Cc1ccc(NC(=O)c2ccc(CN3CCN(C)CC3)cc2)cc1Nc1nc(-c2cccnc2)cs1,NF-kB SEAP reporter activity,"RAW-Dual [1]; cytotoxicity flag (confluency mask): cytotoxic (confluency <70% of control), agonist: Imiquimod (TLR7) […]",1.06
same,NF-kB SEAP reporter activity,"RAW-Dual [1]; cytotoxicity flag (confluency mask): cytotoxic (confluency <70% of control), agonist: MPLA (TLR4) […]",1.44
Cc1ccc(NC(=O)c2ccc(CN3CCN(C)CC3)cc2)cc1Nc1nc(-c2cccnc2)cs1 (library stock concentration (final ~1000-fold dilution): 10 mM),NF-kB SEAP reporter activity,RAW-Dual [2]; agonist: LPS (TLR4) 0.1 ug/mL,0.472
same,NF-kB SEAP reporter activity,RAW-Dual [2]; [4],0.837
same,NF-kB SEAP reporter activity,RAW-Dual [2]; [5],0.329
same,NF-kB SEAP reporter activity,RAW-Dual [2]; [6],0.721
CN(C)Cc1cccc(N/C(=C2\C(=O)Nc3cc(C(=O)N(C)C)ccc32)c2ccccc2)c1 (library stock concentration (final ~1000-fold dilution): 10 mM),NF-kB SEAP reporter activity,RAW-Dual [3]; agonist: LPS (TLR4) 0.1 ug/mL,1.89
same,NF-kB SEAP reporter activity,RAW-Dual [3]; [4],0.401
same,NF-kB SEAP reporter activity,RAW-Dual [3]; [5],0.496
same,NF-kB SEAP reporter activity,RAW-Dual [3]; [6],0.864
CN(C)Cc1cccc(N/C(=C2\C(=O)Nc3cc(C(=O)N(C)C)ccc32)c2ccccc2)c1,NF-kB SEAP reporter activity,RAW-Dual [1]; [7],0.914
same,NF-kB SEAP reporter activity,RAW-Dual [1]; [8],1.4
O=C(Nc1cc(C(F)(F)F)ccc1N1CCCCC1)c1ccncc1,NF-kB SEAP reporter activity,RAW-Dual [1]; [7],0.957
same,NF-kB SEAP reporter activity,RAW-Dual [1]; [8],1.01
O=C(Nc1cc(C(F)(F)F)ccc1N1CCCCC1)c1ccncc1 (library stock concentration (final ~1000-fold dilution): 10 mM),NF-kB SEAP reporter activity,RAW-Dual [3]; agonist: LPS (TLR4) 0.1 ug/mL,0.802
same,NF-kB SEAP reporter activity,RAW-Dual [3]; [4],0.875
same,NF-kB SEAP reporter activity,RAW-Dual [3]; [5],0.764
same,NF-kB SEAP reporter activity,RAW-Dual [3]; [6],0.771
COc1cc2nc(N3CCN(C(=O)c4ccco4)CC3)nc(N)c2cc1OC (library stock concentration (final ~1000-fold dilution): 10 mM),NF-kB SEAP reporter activity,RAW-Dual [3]; agonist: LPS (TLR4) 0.1 ug/mL,1.63
same,NF-kB SEAP reporter activity,RAW-Dual [3]; [4],1.73
same,NF-kB SEAP reporter activity,RAW-Dual [3]; [5],1.07
same,NF-kB SEAP reporter activity,RAW-Dual [3]; [6],1.28
COc1cc2nc(N3CCN(C(=O)c4ccco4)CC3)nc(N)c2cc1OC,NF-kB SEAP reporter activity,RAW-Dual [1]; [7],2
same,NF-kB SEAP reporter activity,RAW-Dual [1]; [8],1.41
O=c1cc(-c2ccccc2)oc2cc(OC3OC(CO)C(O)C(O)C3O)c(O)c(O)c12 (stereo unspecified) (library stock concentration (final ~1000-fold dilution): 10 mM),NF-kB SEAP reporter activity,RAW-Dual [3]; agonist: LPS (TLR4) 0.1 ug/mL,1.33
same,NF-kB SEAP reporter activity,RAW-Dual [3]; [4],0.918
same,NF-kB SEAP reporter activity,RAW-Dual [3]; [5],1.05
same,NF-kB SEAP reporter activity,RAW-Dual [3]; [6],1.25
O=c1cc(-c2ccccc2)oc2cc(OC3OC(CO)C(O)C(O)C3O)c(O)c(O)c12 (stereo unspecified),NF-kB SEAP reporter activity,RAW-Dual [1]; [7],0.869
same,NF-kB SEAP reporter activity,RAW-Dual [1]; [8],0.993
CC(=O)OC12COC1CC(O)C1(C)C(=O)C(O)C3=C(C)C(OC(=O)C(O)C(NC(=O)OC(C)(C)C)c4ccccc4)CC(O)(C(OC(=O)c4ccccc4)C21)C3(C)C (stereo unspecified) (library stock concentration (final ~1000-fold dilution): 10 mM),NF-kB SEAP reporter activity,RAW-Dual [3]; agonist: LPS (TLR4) 0.1 ug/mL,1.2
same,NF-kB SEAP reporter activity,RAW-Dual [3]; [4],0.995
same,NF-kB SEAP reporter activity,RAW-Dual [3]; [5],1.02
same,NF-kB SEAP reporter activity,RAW-Dual [3]; [6],0.841
CC(=O)OC12COC1CC(O)C1(C)C(=O)C(O)C3=C(C)C(OC(=O)C(O)C(NC(=O)OC(C)(C)C)c4ccccc4)CC(O)(C(OC(=O)c4ccccc4)C21)C3(C)C (stereo unspecified),NF-kB SEAP reporter activity,RAW-Dual [1]; [7],1.14
same,NF-kB SEAP reporter activity,RAW-Dual [1]; [8],1.24
Brc1ccc(CCCCn2ccnc2)cc1 (library stock concentration (final ~1000-fold dilution): 10 mM),NF-kB SEAP reporter activity,RAW-Dual [3]; agonist: LPS (TLR4) 0.1 ug/mL,0.672 and 0.736
same,NF-kB SEAP reporter activity,RAW-Dual [3]; [4],0.566 and 0.595
same,NF-kB SEAP reporter activity,RAW-Dual [3]; [5],0.493 and 0.552
same,NF-kB SEAP reporter activity,RAW-Dual [3]; [6],0.585 and 0.645
COC1C(=O)C2(C)C(OC)CC3OCC3(OC(C)=O)C2C(OC(=O)c2ccccc2)C2(O)CC(OC(=O)C(O)C(NC(=O)OC(C)(C)C)c3ccccc3)C(C)=C1C2(C)C (stereo unspecified),NF-kB SEAP reporter activity,RAW-Dual [1]; [7],1.57
same,NF-kB SEAP reporter activity,RAW-Dual [1]; [8],1.25
COC1C(=O)C2(C)C(OC)CC3OCC3(OC(C)=O)C2C(OC(=O)c2ccccc2)C2(O)CC(OC(=O)C(O)C(NC(=O)OC(C)(C)C)c3ccccc3)C(C)=C1C2(C)C (stereo unspecified) (library stock concentration (final ~1000-fold dilution): 10 mM),NF-kB SEAP reporter activity,RAW-Dual [3]; agonist: LPS (TLR4) 0.1 ug/mL,1.71
same,NF-kB SEAP reporter activity,RAW-Dual [3]; [4],1.2
same,NF-kB SEAP reporter activity,RAW-Dual [3]; [5],1.01
same,NF-kB SEAP reporter activity,RAW-Dual [3]; [6],0.912
